PubChem BioAssay AID1963576 (National Center for Advancing Translational Sciences (NCATS), 2024)
Hit rate of the full screen: of about 46,000 compounds, about 60 (0.1%) were called active. Roughly 3% stayed inconclusive and do not appear here. The call rests on the fitted dose curve; in most records, active means well fitted inhibition curve with a large enough effect; inconclusive means small, poorly fitted or top-dose-only effect; inactive means no such curve, though single readings can be large or run the other way. This is one part of the list.

Assay: Primary qHTS assay for Inhibitors of ovarian cancer metastasis using an organotypic tumor microenvironment (TME) model. Further: nearly all actives have a fitted effect of over 65% in size.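 On activity change, negative = inhibition: plate controls were DMSO wells for no effect and tomatine positive control wells for full effect.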
Details: SKOV3ip1-GFP adhesion/invasion on 3D omental model, fluorescence; series mostly up to 45.8 µM; activity change, negative = inhibition: at the top concentration
Method in brief: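 Adhesion/invasion was scored as fixed GFP-labeled SKOV3ip1 cell counts (488/509 nm), normalized to DMSO and tomatine controls. Cancer cells in serum-free medium, with four compound doses (0.36-46 umol/L), sat 2 hr at RT then 16 hr at 37 C on a 48 hr fibroblast/mesothelial/ECM culture.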

SMILES	outcome	activity change, negative = inhibition
Cc1csc2nc(COc3ccccc3NC(=O)c3ccccc3Cl)cc(=O)n12	inactive	
Cn1c(=O)cc(OCC(=O)NCc2ccc(F)cc2Cl)c2ccccc21	inactive	
Cc1ccc(-c2nc(CS(=O)(=O)CC(=O)Nc3cc(C)ccc3C)c(C)o2)cc1	inactive	
Cc1nn(-c2ccccc2)c2sc(C(=O)Nc3cccc(O)c3)cc12	inactive	
Cc1ccc(-n2ncc(C(=O)Nc3c(Cl)cccc3Cl)c2C2CCNCC2)cc1		inactive: -14.2%
O=C(COCc1cc(-c2ccc3c(c2)OCO3)on1)NCc1ccc(F)cc1		inactive: -5.95%
CSc1ccc(CCNC(=O)c2ccc(CS(=O)Cc3ccc(Cl)cc3)o2)cc1 (configuration not stated)		inactive: 10.2%
CSc1nc2c([nH]c3ccccc32)c(=O)n1-c1ccc(C)cc1		inactive: -2.39%
Cc1ccc2nc(-c3ccc(Cl)c(NC(=O)c4ccc(Br)o4)c3)oc2c1		inactive: -9.86%
O=C(Nc1ccccc1Cl)c1cc2c(-c3ccccc3)nn(-c3ccccc3)c2s1	inactive	
COc1cc(C2CC(=O)Nc3c2c(C)nn3-c2nncc(-c3ccccc3)n2)cc(OC)c1OC (configuration not stated)		inactive: -4.78%
O=C(CSc1nc(-c2cccs2)nc2cc(=O)[nH]n12)Nc1ccccc1Cl		inactive: -2.79%
Cc1ccc(C)c(N2CCN(S(=O)(=O)c3cc(C(=O)Nc4cc(Cl)cc(Cl)c4)ccc3F)CC2)c1	inactive	
Cc1cccc(-c2nc(CSCC(=O)N3CCN(c4cccc(C)c4C)CC3)c(C)o2)c1		inactive: 11.9%
CCc1ccc2c(c1)NC(c1cccnc1)=NC(c1ccc(C(C)(C)C)cc1)=N2	inactive	
Cc1ccc(Cl)cc1NC(=O)c1cc(S(=O)(=O)N2CCCCCC2)cn1C	inactive	
COc1ccc(/C=C/c2nc(C#N)c(N3CCC(C)CC3)o2)cc1OC		inactive: -3.9%
Cc1ccc2nc3c(cc(C#N)c(=O)n3-c3nnc(SCc4ccccc4Cl)s3)c(=O)n2c1		inactive: 0.955%
COc1ccc(Nc2ncc3c(n2)CCN(Cc2ccc(Br)s2)C3)c(OC)c1		inactive: -12.9%
CCOc1ccc(C(=O)Nc2cccc(-c3nc4cccnc4s3)c2C)cc1OCC		inactive: -3.2%
O=C(OCc1cc(=O)n2nc(-c3cccs3)sc2n1)c1ccc(F)cc1		inactive: 7.01%
CCN(c1ccccc1)c1nnc(NC(=O)Nc2ccc(C)cc2)s1	inactive	
CC(=O)N1N=C(c2ccc(C)cc2)CC1c1cn(-c2ccccc2)nc1-c1cccs1 (configuration not stated)		inactive: -2.3%

SMILES	outcome	activity change, negative = inhibition
COc1ccc(-c2n[nH]c3c2cnc2cc(OC)c(OC)cc23)cc1		inactive: 1.32%
CCOc1ccccc1CNC(=O)C1CCN(c2nc3ccccc3nc2C(F)(F)F)CC1	inactive	
CCc1ccc(C(=O)c2cn(CC(=O)Nc3ccc4c(c3)OCO4)c3ccc(F)cc3c2=O)cc1		inactive: -12.3%
Cn1c(=O)oc2cc(S(=O)(=O)NC(Cc3ccccc3)C(=O)NCc3ccccc3Cl)ccc21 (configuration not stated)		inactive: -3.45%
CCN(CC)S(=O)(=O)c1ccc2c(c1)c(=O)c(C(=O)N1CCN(c3cccc(Cl)c3)CC1)cn2C	inactive	
Cc1cccc(C2N=C(N)Nc3nc4ccccc4n32)c1 (configuration not stated)	inactive	
COc1cc(OC)c(NC(=O)c2ccc3c(c2)N(Cc2ccc(C)cc2)CCS3)cc1Cl		inactive: -1.23%
Cc1ccc(CSC2=Nc3ccccc3C3=NC(CC(=O)NCc4ccc5c(c4)OCO5)C(=O)N23)cc1 (configuration not stated)		inactive: 1.44%
CCCS(=O)(=O)Nc1cc(-c2cn3ccc(C)cc3n2)ccc1C		inactive: 0.976%
O=C(Nc1ccc2nc(SCC(=O)N3CCCc4ccccc43)sc2c1)c1ccc(Cl)cc1	inactive	
Cc1ccc(-n2ncc(C(=O)NC3CCN(Cc4ccccc4)CC3)c2C2CCN(C(=O)OC(C)(C)C)CC2)cc1C		inactive: -8.59%
COc1ccc(CCCc2nnc(SCC(=O)Nc3ccc(C)cc3)o2)cc1C		inactive: 16.2%
COc1ccccc1N1CCN(S(=O)(=O)c2c(C)sc3ncn(CC(=O)Nc4ccc(C)cc4Br)c(=O)c23)CC1		inactive: 1.91%
Cc1ccc(Nc2sc(C(=O)c3ccc(F)cc3)c(N)c2S(=O)(=O)c2ccc(C)cc2)cc1	inactive	
Cc1ccc(S(=O)(=O)c2nnn3c2nc(N2CCOCC2)c2sccc23)cc1C		inactive: 3.63%
Cc1ccc(C)c(CN2C(=O)c3ccccc3S(=O)c3ccc(C(=O)N4CCOCC4)cc32)c1 (configuration not stated)	inactive	
COc1ccc(C(=O)Nc2nc3n(n2)C(c2ccc(Cl)cc2)C=C(c2ccccc2)N3)cc1OC (configuration not stated)	inactive	
COc1ccc(-n2c(=O)c3ccccc3n(Cc3ccccc3Cl)c2=O)cc1		inactive: -6.71%
CC(Sc1nc(=O)cc(N)n1CCc1ccccc1)C(=O)Nc1cccc(Cl)c1 (configuration not stated)	inactive	
CCOc1ccccc1NC(=O)Cn1c(=O)n(Cc2cccs2)c(=O)c2cccnc21		inactive: 0.842%
CCC(C(=O)NCCc1cc(OC)ccc1OC)n1nc(C)c2c(C)n(-c3ccccc3)nc2c1=O (configuration not stated)		inactive: 2.06%
Fc1ccc(-c2nn(-c3ccc(Cl)cc3)c3c2cnc2ccc(F)cc23)cc1		inactive: 1.64%
O=C(CN1C(=O)CCSc2ccccc21)Nc1ccc(C(F)(F)F)cc1	inactive	

SMILES	outcome	activity change, negative = inhibition
COc1ccc(OC)c(NC(=O)Cn2c(=O)cc(C)c3c(C)nn(-c4cccc(Cl)c4C)c32)c1		inactive: -7.82%
CN1CC(=O)Nc2cc(C(=O)O)ccc21		inactive: 6.09%
Cc1ccc(CNC(=O)C2CCCN(c3ncnc4onc(-c5ccc(F)cc5)c34)C2)cc1 (configuration not stated)		inactive: 6.74%
CCOc1ccc(NC(=O)CN2CCN(CC(=O)Nc3ccc(F)cc3F)CC2)cc1		inactive: -11.9%
CCCN1Cc2cccc(C(=O)Nc3ccccc3C(=O)OC)c2C1=O		inactive: -12.8%
Cc1ccccc1-c1noc(-c2nnn(-c3ccccc3C)c2N)n1		inactive: 0.851%
Cc1ccc(-n2cc(C(=O)OCc3ccc(F)c(F)c3)c3ccccc3c2=O)cc1	inactive	
CCOc1ccccc1C(=O)Nc1ccc(S(=O)(=O)N(Cc2ccccc2)c2ccccc2)cc1		inactive: 0.468%
CCOC(=O)c1ccccc1NC(=O)Cn1ccn2nc(-c3ccc(OCC)cc3)cc2c1=O		inactive: 1.11%
COC(=O)c1c(NC(=O)COc2cccc(C(F)(F)F)c2)sc2c1CCCC2		inactive: 3.81%
COc1ccc(Cc2nc3c4cnn(-c5cccc(F)c5)c4ncn3n2)cc1		inactive: 9.72%
C=CC[C@@H]1C=C(C)C[C@H](C)C[C@H](OC)[C@H]2O[C@@](O)(C(=O)C(=O)N3CCCC[C@H]3C(=O)O[C@H](C(C)=C[C@@H]3CC[C@H](O)[C@H](OC)C3)[C@@H](C)[C@@H](O)CC1=O)[C@@H](C)C[C@@H]2OC		inactive: 0.301%
Cc1cccc(C(=O)N(Cc2ccccc2F)C2CCS(=O)(=O)C2)c1 (configuration not stated)		inactive: 6.98%
COc1cc(C(=O)N2CCN(C(=O)COc3cccc(C)c3)CC2)cc(OC)c1OC	inactive	
COc1ccc(N2CCN(C(=O)c3cnn(-c4ccc(OC)cc4)c3C3CCN(C(=O)OC(C)(C)C)CC3)CC2)cc1		inactive: 12.4%
CCN(CC)c1ccc(NS(=O)(=O)c2cc(-c3cc(C)no3)ccc2C)c(C)c1	inactive	
Cc1c(Cl)cccc1-c1ccc(/C=C(\C#N)c2nc3ccccc3[nH]2)o1		inactive: -21.6%
C=C[C@@H]1CN2CCC1C[C@H]2[C@H](O)c1ccnc2ccc(OC)cc12 (some centres not stated)		inactive: -11.9%
CCCCOc1cccc(C(=O)N2CCN(CCc3ccncc3)CC2)c1		inactive: -5.36%
CCCNC(=O)N1CCCN(S(=O)(=O)c2ccc3c(ccn3CC)c2)CC1		inactive: 6.99%
Cc1ccc(CCNC(=O)CN(c2ccc(C(C)C)cc2)S(=O)(=O)c2c(C)nn(C)c2C)cc1	inactive	
CCN(CC)C(=O)CSc1nc2cc3c(cc2c(=O)n1CCCC(=O)NCc1ccc(OC)cc1)OCO3		inactive: -3.73%
CCOc1ccc(Cc2cc([C@@H]3O[C@H](CO)[C@@H](O)[C@H](O)[C@@H]3O)ccc2Cl)cc1		inactive: -2.21%

SMILES	outcome	activity change, negative = inhibition
CCc1ccc(CN(Cc2cn[nH]c2-c2ccc(OC)cc2)C(=O)Nc2ccc(Br)cc2)cc1		inactive: 4.45%
CN(C)c1ccc(C(CNS(=O)(=O)c2ccc(F)cc2F)N2CCOCC2)cc1 (configuration not stated)		inactive: -7.58%
CCc1nn(CC(=O)NCCOC)c(=O)c2cc3cc(F)ccc3n12		inactive: -15.4%
O=C(Nc1cccc(C(F)(F)F)c1)Nc1ccc2snnc2c1	inactive	
CCOC(=O)c1c(NC(=O)c2ccc(S(=O)(=O)N(CC)CC)cc2)sc2c1CCCCC2		inactive: -16%
CCn1c(SCC(=O)Nc2c(C)cccc2C)nnc1-c1nonc1NC(C)=O		inactive: 3.73%
COc1cc(N2CCC(C(N)=O)CC2)ccc1Nc1nc(N)c(Cl)c(Nc2ccccc2S(=O)(=O)C(C)C)n1		inactive: 9.03%
COc1ccccc1N1CCN(C(=O)CSc2nc3ccccc3nc2Cc2ccc(C)cc2)CC1	inactive	
CN(C)c1nc(N(C)C)nc(N(C)C)n1		inactive: -2.09%
COc1cc(NS(=O)(=O)c2cc(Br)cc3c2N(C(=O)C2CC2)CC3)cc(OC)c1		inactive: -0.499%
Cc1cccc(NC(=O)Cn2c(=O)c3cccn3c3ccccc32)c1C		inactive: -0.0987%
CCS(=O)(=O)c1cccc(C(=O)Nc2ccc(-c3nc4ccccc4s3)c(O)c2)c1	inactive	
COc1ccc(-c2csc(-c3c(N)c(C(=O)c4ccccc4)n4ccccc34)n2)cc1OC		inactive: -14.5%
CC1CCN(C(=O)Cn2c(SCC(=O)Nc3ccc(F)cc3)nc3ccccc32)CC1		inactive: 8.5%
Cc1ccc(CN2CCN(C3CCN(S(=O)(=O)N(C)C)CC3)C(=O)C2=O)cc1		inactive: 1.34%
CCN(CCCNC(=O)c1nn(-c2ccc(OC)c(Cl)c2)c(=O)c2c1c1ccccc1n2C)c1ccccc1		inactive: 24.1%
Cc1ccc(NS(=O)(=O)c2ccc3c(c2)C(C(C)C)C(=O)N3)cc1C (configuration not stated)		inactive: 15%
Cc1nc2c(C(=O)NCCc3ccc(Cl)cc3)cnn2c(C)c1Cc1ccc(F)cc1		inactive: -10.8%
CC(C)NC(=O)C1CCN(C(=O)c2cnn(-c3ccccc3)c2-n2cccc2)CC1	inactive	
CC(C)c1ccc(OCC(=O)NCC(c2ccc(Cl)cc2)N2CCOCC2)cc1 (configuration not stated)		inactive: -11.9%
CCOC(=O)C1=C(CN2CCN(C)CC2)NC(=O)NC1c1ccc(F)cc1 (configuration not stated)		inactive: 3.55%
CCN(Cc1ccccc1)C(=O)Cn1c(=O)n(-c2cccc(C)c2)c(=O)c2c1c1cc(OC)ccc1n2C		inactive: -1.88%
Cn1nc(C(=O)NCCc2ccc(Cl)cc2)c2c1-c1ccccc1SC2	inactive	
